# Test results as given in article PMC9911399, “Two distinct binding modes provide the RNA-binding protein RbFox with extraordinary sequence specificity”.
# Numbering of substitutions follows the chain as printed; changes in the protein carry UniProt numbers. Some of the results follow.
# T1: RBFOX1 RRM RbFoxmut (Fox-RRM*) (Homo sapiens, UniProt Q9NWB1 109-208, R118D;E147R;N151S;E152T)
# T1 sequence: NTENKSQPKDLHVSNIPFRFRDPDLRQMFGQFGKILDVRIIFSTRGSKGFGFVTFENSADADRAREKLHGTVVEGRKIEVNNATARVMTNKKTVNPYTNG
# B1: GCUCUAC (DNA:RNA)
# RNA: GGGAGACCGGAAUUCAGAUUGUCCGCUCUACUUAAAUCCCGUCGUAGCCACCA
# DNA 1: CAATCTGAATTCCGGTCTCCC
# DNA 2: TGGTGGCTACGACGGGATT
# B2: UGAGGGG (DNA:RNA)
# RNA: GGGAGACCGGAAUUCAGAUUGUCCUGAGGGGUUAAAUCCCGUCGUAGCCACCA
# DNA 1: CAATCTGAATTCCGGTCTCCC
# DNA 2: TGGTGGCTACGACGGGATT
# B3: UUGCGGC (DNA:RNA)
# RNA: B2 RNA with G26U, A27G, G28C, G31C
# DNA 1: CAATCTGAATTCCGGTCTCCC
# DNA 2: TGGTGGCTACGACGGGATT
# B4: GAGGGAA (DNA:RNA)
# RNA: B1 RNA with C26A, U27G, C28G, U29G, C31A
# DNA 1: CAATCTGAATTCCGGTCTCCC
# DNA 2: TGGTGGCTACGACGGGATT
# B5: CAAGUGU (DNA:RNA)
# RNA: B2 RNA with U25C, G26A, G29U, G31U
# DNA 1: CAATCTGAATTCCGGTCTCCC
# DNA 2: TGGTGGCTACGACGGGATT
# B6: UUUAGCC (DNA:RNA)
# RNA: B1 RNA with G25U, C26U, C28A, U29G, A30C
# DNA 1: CAATCTGAATTCCGGTCTCCC
# DNA 2: TGGTGGCTACGACGGGATT
# B7: GGGGCGG (DNA:RNA)
# RNA: B2 RNA with U25G, A27G, G29C
# DNA 1: CAATCTGAATTCCGGTCTCCC
# DNA 2: TGGTGGCTACGACGGGATT
# B8: UAGUACG (DNA:RNA)
# RNA: B2 RNA with G26A, A27G, G28U, G29A, G30C
# DNA 1: CAATCTGAATTCCGGTCTCCC
# DNA 2: TGGTGGCTACGACGGGATT
# B9: UAUGGGG (DNA:RNA)
# RNA: B2 RNA with G26A, A27U
# DNA 1: CAATCTGAATTCCGGTCTCCC
# DNA 2: TGGTGGCTACGACGGGATT
# B10: AGACCGC (DNA:RNA)
# RNA: B2 RNA with U25A, G28C, G29C, G31C
# DNA 1: CAATCTGAATTCCGGTCTCCC
# DNA 2: TGGTGGCTACGACGGGATT
# B11: UGACGAG (DNA:RNA)
# RNA: B2 RNA with G28C, G30A
# DNA 1: CAATCTGAATTCCGGTCTCCC
# DNA 2: TGGTGGCTACGACGGGATT
# B12: GCUCGAG (DNA:RNA)
# RNA: B1 RNA with U29G, C31G
# DNA 1: CAATCTGAATTCCGGTCTCCC
# DNA 2: TGGTGGCTACGACGGGATT
# B13: GCGCUCG (DNA:RNA)
# RNA: B1 RNA with U27G, A30C, C31G
# DNA 1: CAATCTGAATTCCGGTCTCCC
# DNA 2: TGGTGGCTACGACGGGATT
# B14: GCUGUGG (DNA:RNA)
# RNA: B1 RNA with C28G, A30G, C31G
# DNA 1: CAATCTGAATTCCGGTCTCCC
# DNA 2: TGGTGGCTACGACGGGATT
# B15: CGAUCGA (DNA:RNA)
# RNA: B2 RNA with U25C, G28U, G29C, G31A
# DNA 1: CAATCTGAATTCCGGTCTCCC
# DNA 2: TGGTGGCTACGACGGGATT
# B16: CUGAUGG (DNA:RNA)
# RNA: B2 RNA with U25C, G26U, A27G, G28A, G29U
# DNA 1: CAATCTGAATTCCGGTCTCCC
# DNA 2: TGGTGGCTACGACGGGATT
# B17: AUCGGGC (DNA:RNA)
# RNA: B2 RNA with U25A, G26U, A27C, G31C
# DNA 1: CAATCTGAATTCCGGTCTCCC
# DNA 2: TGGTGGCTACGACGGGATT
# B18: ACUCAGU (DNA:RNA)
# RNA: B1 RNA with G25A, U29A, A30G, C31U
# DNA 1: CAATCTGAATTCCGGTCTCCC
# DNA 2: TGGTGGCTACGACGGGATT
# B19: GUCACUC (DNA:RNA)
# RNA: B1 RNA with C26U, U27C, C28A, U29C, A30U
# DNA 1: CAATCTGAATTCCGGTCTCCC
# DNA 2: TGGTGGCTACGACGGGATT
# B20: CUCCUUA (DNA:RNA)
# RNA: B1 RNA with G25C, C26U, U27C, A30U, C31A
# DNA 1: CAATCTGAATTCCGGTCTCCC
# DNA 2: TGGTGGCTACGACGGGATT
# B21: GAGUUCG (DNA:RNA)
# RNA: B1 RNA with C26A, U27G, C28U, A30C, C31G
# DNA 1: CAATCTGAATTCCGGTCTCCC
# DNA 2: TGGTGGCTACGACGGGATT
# B22: CAUAUCG (DNA:RNA)
# RNA: B1 RNA with G25C, C26A, C28A, A30C, C31G
# DNA 1: CAATCTGAATTCCGGTCTCCC
# DNA 2: TGGTGGCTACGACGGGATT
# B23: UCACUUU (DNA:RNA)
# RNA: B1 RNA with G25U, U27A, A30U, C31U
# DNA 1: CAATCTGAATTCCGGTCTCCC
# DNA 2: TGGTGGCTACGACGGGATT
# B24: GUCGCGG (DNA:RNA)
# RNA: B2 RNA with U25G, G26U, A27C, G29C
# DNA 1: CAATCTGAATTCCGGTCTCCC
# DNA 2: TGGTGGCTACGACGGGATT
# B25: AUGCCAU (DNA:RNA)
# RNA: B1 RNA with G25A, C26U, U27G, U29C, C31U
# DNA 1: CAATCTGAATTCCGGTCTCCC
# DNA 2: TGGTGGCTACGACGGGATT
# B26: ACAGUCC (DNA:RNA)
# RNA: B1 RNA with G25A, U27A, C28G, A30C
# DNA 1: CAATCTGAATTCCGGTCTCCC
# DNA 2: TGGTGGCTACGACGGGATT
# B27: CCCGCCA (DNA:RNA)
# RNA: B1 RNA with G25C, U27C, C28G, U29C, A30C, C31A
# DNA 1: CAATCTGAATTCCGGTCTCCC
# DNA 2: TGGTGGCTACGACGGGATT
# B28: GCGAGGC (DNA:RNA)
# RNA: B1 RNA with U27G, C28A, U29G, A30G
# DNA 1: CAATCTGAATTCCGGTCTCCC
# DNA 2: TGGTGGCTACGACGGGATT
# B29: CUAAUAC (DNA:RNA)
# RNA: B1 RNA with G25C, C26U, U27A, C28A
# DNA 1: CAATCTGAATTCCGGTCTCCC
# DNA 2: TGGTGGCTACGACGGGATT
# B30: GCCCACU (DNA:RNA)
# RNA: B1 RNA with U27C, U29A, A30C, C31U
# DNA 1: CAATCTGAATTCCGGTCTCCC
# DNA 2: TGGTGGCTACGACGGGATT
# B31: GCACAUC (DNA:RNA)
# RNA: B1 RNA with U27A, U29A, A30U
# DNA 1: CAATCTGAATTCCGGTCTCCC
# DNA 2: TGGTGGCTACGACGGGATT
# Molecular target: T1, RBFOX1 RRM RbFoxmut (Fox-RRM*)
# Test: EMSA; HiTS-Eq, 1 nM pool, 10 min; buffer printed only for the single-RNA assays: 10 mM Tris pH 7.5, 150 mM NaCl, 3.4 mM EDTA, 0.001% NP-40, 30 C
# Settings: tags: His6 N-terminal (pET28a); label: 5' 32P
# Method in brief: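 Relative association constants, normalised to the cognate motif, were derived by comparing read counts of each RNA species with those of the control reaction. The RNA sequenced was the free fraction, separated by 8% native PAGE after a 10 min equilibration in 50 µL of 1 nM 5′-radiolabelled RNA (7 randomized nucleotides) with increasing concentrations of purified wild-type or mutant RbFox RRM.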
row,Binder,binding signal
1,B1,0.0785 KA relative to UGCAUGU
2,B2,0.0497 KA relative to UGCAUGU
3,B3,0.0877 KA relative to UGCAUGU
4,B4,0.11 KA relative to UGCAUGU
5,B5,0.128 KA relative to UGCAUGU
6,B6,0.128 KA relative to UGCAUGU
7,B7,0.104 KA relative to UGCAUGU
8,B8,0.122 KA relative to UGCAUGU
9,B9,0.079 KA relative to UGCAUGU
10,B10,0.0771 KA relative to UGCAUGU
11,B11,0.0874 KA relative to UGCAUGU
12,B12,0.181 KA relative to UGCAUGU
13,B13,0.136 KA relative to UGCAUGU
14,B14,0.11 KA relative to UGCAUGU
15,B15,0.0748 KA relative to UGCAUGU
16,B16,0.0847 KA relative to UGCAUGU

row,Binder,binding signal
1,B17,0.0955 KA relative to UGCAUGU
2,B18,0.0787 KA relative to UGCAUGU
3,B19,0.0323 KA relative to UGCAUGU
4,B20,0.108 KA relative to UGCAUGU
5,B21,0.18 KA relative to UGCAUGU
6,B22,0.1 KA relative to UGCAUGU
7,B23,0.0759 KA relative to UGCAUGU
8,B24,0.0978 KA relative to UGCAUGU
9,B25,0.0816 KA relative to UGCAUGU
10,B26,0.0589 KA relative to UGCAUGU
11,B27,0.112 KA relative to UGCAUGU
12,B28,0.0796 KA relative to UGCAUGU
13,B29,0.117 KA relative to UGCAUGU
14,B30,0.064 KA relative to UGCAUGU
15,B31,0.076 KA relative to UGCAUGU
